According to PubChem BioAssay AID686979 (National Center for Advancing Translational Sciences (NCATS), 2013):
Screen size: about 420,000 compounds; about 50,000 (12%) were called active. Inconclusive means that the source gave no clear call. Such entries were picked first, then a sample of the others. Calls follow the shape of the dose curve; as a rule, active = well fitted inhibition curve with a large enough effect; inconclusive = small, poorly fitted or top-dose-only effect; inactive = flat fitted curve, though single readings scatter. Potencies of inconclusive entries are left out as doubtful fits.

Test: qHTS for Inhibitors of human tyrosyl-DNA phosphodiesterase 1 (TDP1): qHTS in cells in presence of CPT; also: nearly all actives have a fitted effect of over 55% in size
Settings: chicken DT40 Tdp1-/-;hTDP1 cells + 20 nM CPT, ATP luminescence, 48 h; activity change, negative = growth inhibition: at 46.2 µM (top of the series) unless noted
Method in brief: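 Chicken DT40 Tdp1-/- cells complemented with human TDP1, 400 cells/well, exposed to compounds plus 20 nM camptothecin for at least 48 h at 37 C; viability read as ATP content by CellTiter-Glo luminescence.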
% is scaled to controls: 0 for no effect and ±100 for the full control effect; potency is read from the fitted curve at half-maximal effect; tags tell the direction and shape of the fitted curve.

| SMILES | activity change, negative = growth inhibition | Potency |
| --- | --- | --- |
| Fc1cccc(Cl)c1CNCc1ccccc1Cl | inactive: -25.3% |  |
| O=C(COC(=O)CNC(=O)c1cc(Cl)cc([N+](=O)[O-])c1)NC(=O)NCc1ccco1 | inactive: -1.78% |  |
| CCCCOc1ccc(C2C(=O)N(C3CCCCC3)CC(=O)N2CCCC)cc1 (configuration not stated) |  | inconclusive [inhibitor, single point] |
| COC(=O)CN(C)C(=O)c1ccc(OC2CCN(S(=O)(=O)N(C)C)CC2)cc1 | inactive: -1.07% |  |
| COc1ccc(CNC(=O)COC(=O)c2cnccn2)cc1 | inactive: -11.8% |  |
| COc1ccccc1CN(Cc1cc2cc(C)cc(C)c2[nH]c1=O)Cc1nnnn1CC1CCCO1 (configuration not stated) |  | inconclusive [inhibitor, single point] |
| CCCc1[nH]nc2c1C(C1CC=CCC1)C(C#N)=C(N)O2 (configuration not stated) |  | active: 16.4 µM |
| Cc1cc(C)n(-c2ccc([N+](=O)[O-])cc2-c2nn[nH]n2)n1 | inactive: -8.19% |  |
| COc1cc(NS(=O)(=O)c2ccc(C)cc2C)cc(OC)c1OC |  | active: 6.51 µM |
| COc1ccc(C2NC(=O)c3ccccc3N2)c(OC)c1OC (configuration not stated) |  | inconclusive [inhibitor, single point] |
| CN1/C(=c2/s/c(=C3/C(=O)N(c4ccccc4)NC3=Nc3ccccc3)n(C)c2=O)C(C)(C)c2ccccc21 |  | inconclusive [inhibitor, partial curve] |
| O=c1[nH]c(C(F)(F)C(F)(F)C(F)(F)F)no1 | inactive: -12.8% |  |
| CCCCc1ccc(NC(=O)CSC2=C(C#N)C(c3ccco3)C3=C(CCCC3=O)N2)cc1 (configuration not stated) |  | inconclusive [inhibitor, single point] |
| COc1cccc(-c2cc3nc(NCCOc4ccccc4Cl)n(C)c(=O)c3s2)c1 |  | inconclusive [inhibitor, single point] |
| Cc1ccc(-n2ncc(C(=O)NCCCN3CCc4ccccc4C3)c2C2CCN(C(=O)OC(C)(C)C)CC2)c(C)c1 |  | active: 20.6 µM |
| Cc1ccc(Nc2nc(N)nc(CSC(=S)N3CCOCC3)n2)c(C)c1 |  | inconclusive [inhibitor, single point] |
| O=C(CSc1cccc[n+]1[O-])Nc1ccc2c(c1)OCO2 | inactive: -16.9% |  |
| Cc1ccc2nc(N(CCN(C)C)C(=O)c3ccc4ccccc4c3)sc2c1 |  | inconclusive [inhibitor, single point] |
| COc1ccc(F)cc1C(=O)C1CCCN(Cc2c[nH]c3ccccc23)C1 (configuration not stated) |  | active: 4.11 µM |
| Cc1ccc2c(C)cc(=S)[nH]c2c1 |  | inconclusive [inhibitor, single point] |
| COc1ccc(-c2nc3cccc(C)n3c2NCc2ccco2)cc1OC |  | inconclusive [inhibitor, single point] |
| O=C(NC(=S)NCc1ccccc1)c1ccccc1[N+](=O)[O-] | inactive: 3.91% |  |
| O=C(O)c1nn2cc(CCO)cnc2c1Cl | inactive: -4.27% |  |
| CC1(C(=O)Nc2ccc3c(c2)OCCO3)CSCC(=O)N1CCc1ccccc1F (configuration not stated) | inactive: -37.5% |  |

| SMILES | activity change, negative = growth inhibition | Potency |
| --- | --- | --- |
| Cc1ccc(-c2nc(CS(=O)CC(=O)NC3CCCC3)c(C)o2)cc1 (configuration not stated) |  | inconclusive [inhibitor, single point] |
| CO[C@H]1CN(C)C(=O)c2cc(NC(=O)C3CCOCC3)ccc2OC[C@H](C)N(Cc2nccs2)C[C@H]1C | inactive: 0.692% |  |
| Cc1cc(C)n(CC(=O)NC2CCCc3c2cnn3-c2ccc(C)c(C)c2)n1 (configuration not stated) |  | inconclusive [inhibitor, single point] |
| COC(=O)c1cc2nc(-c3ccc(OC)c(OC)c3)cc(C(F)(F)F)n2n1 | inactive: -0.276% |  |
| COCCC(C(=O)Oc1c(C(C)(C)C)cc(C)cc1C(C)(C)C)c1ccccc1 (configuration not stated) |  | inconclusive [inhibitor, single point] |
| CCCCOc1ccc(-c2nnn(CC(=O)Nc3ncc(CC(=O)OCC)s3)n2)cc1 |  | inconclusive [inhibitor, partial curve, poor fit] |
| Cc1cc(C)c(C)c(S(=O)(=O)N2CCC(C(=O)Nc3ccncc3)CC2)c1C |  | inconclusive [inhibitor, single point] |
| CN(CCO)c1nc(NCc2ccccc2)c2cnn(C)c2n1 |  | inconclusive [inhibitor, single point] |
| Nc1cc(=O)[nH]c(SCCSc2ccc(F)cc2)n1 |  | inconclusive [inhibitor, single point] |
| CCc1ccc2nc(Nc3nc(COC)cc(=O)[nH]3)nc(C)c2c1 |  | active: 9.2 µM |
| COc1cc(C2NC(=O)CCC2[N+](=O)[O-])c(OC)cc1Br (configuration not stated) | inactive: 8.35% |  |
| CCCS(=O)(=O)NC(=O)C1(C)CCN(C(=O)c2ccccc2OC(F)(F)F)C1 (configuration not stated) | inconclusive: 7.65% [inhibitor] |  |
| COc1ccccc1CNCC(=O)Nc1ccc(C#N)cc1 |  | inconclusive [inhibitor, single point] |
| CCN(Cc1ccccc1)C(=O)CN1C(=O)NC2(CC(C)CC(C)(C)C2)C1=O (configuration not stated) |  | inconclusive [inhibitor, single point] |
| Cc1cccc(C)c1NC(=O)C(c1ccc([N+](=O)[O-])cc1)N(C)C(=O)c1ccccn1 (configuration not stated) |  | active: 6.51 µM |
| CCCCN(C)C(=O)c1ccc2c(c1)N(CC)C(=O)c1ccccc1S2=O (configuration not stated) |  | inconclusive [inhibitor, single point] |
| COc1ccc(NS(=O)(=O)c2ccc(Oc3c(C#N)cccc3C#N)cc2)cc1 |  | active: 10.3 µM |
| COC(=O)c1c(C)[nH]c(C)c1C(=O)c1ccccc1Cc1ccccc1 |  | active: 40.1 µM |
| CC(C(=O)N1CCCc2ccccc21)N1C(=O)c2ccccc2C1=O (configuration not stated) | inactive: -14.2% |  |
| COc1cccc(CNC(=O)Cn2nc(N3CCN(c4ccccc4OC)CC3)ccc2=O)c1 |  | active: 18.4 µM |
| CC1(C)CC(N2CCCCC2)=CC(=[N+]2CCCCC2)C1 |  | active: 0.146 µM |
| Cc1ccc(CN2C[C@H](Sc3ccccn3)C[C@H]2C(=O)Nc2ccc3sc(C)nc3c2)s1 | inactive: 18.5% [at 9.04 µM] |  |
| Cc1nn(C)c(C)c1S(=O)(=O)N(CC(=O)N1CCc2ccccc2C1)c1ccc(C(C)C)cc1 |  | inconclusive [inhibitor, single point] |
